From the BET-seq Pho4 binding data (Le et al. 2018) come the findings set out here.

The list shows a part of the results. The energies were worked out here from pooled read counts, against the library average; single values are noisy.

The assay deals with T1, Pho4 (S. cerevisiae) (UniProt P07270).
T1 sequence: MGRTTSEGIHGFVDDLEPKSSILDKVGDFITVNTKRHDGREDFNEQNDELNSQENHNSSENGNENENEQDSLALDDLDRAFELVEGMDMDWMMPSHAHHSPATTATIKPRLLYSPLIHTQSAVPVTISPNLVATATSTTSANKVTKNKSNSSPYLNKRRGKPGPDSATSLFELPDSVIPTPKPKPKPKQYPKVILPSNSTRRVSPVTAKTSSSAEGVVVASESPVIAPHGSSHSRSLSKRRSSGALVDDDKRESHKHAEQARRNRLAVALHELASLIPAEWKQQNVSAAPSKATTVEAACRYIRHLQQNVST
Put plainly: relative binding free energy (BET-seq); higher = weaker binding. Particulars: reference: library average.
In the case of AGATTCACGTGATAGG, the “relative binding free energy” value turned out to be 0.33 kcal/mol.

For the sequence TCAGTCACGTGCTGTT, the “relative binding free energy” value was 0.04 kcal/mol.

For the sequence TGTCTCACGTGGTAAA, the “relative binding free energy” value amounted to 0.13 kcal/mol.

Turning to GACGGCACGTGGTGGC, the “relative binding free energy” value is -0.03 kcal/mol.

TGGTTCACGTGGGTCA: the “relative binding free energy” value was 0.13 kcal/mol.

As for CTAGTCACGTGTTTTT, the “relative binding free energy” value came to 0.15 kcal/mol.

On to GTTTGCACGTGGCGAG, for which the “relative binding free energy” value is -0.14 kcal/mol.

Consider GCACGCACGTGGGTTG, for which the “relative binding free energy” value is -0.1 kcal/mol.

Consider TTCTTCACGTGCTGGG, for which the “relative binding free energy” value was found to be 0.41 kcal/mol.

TGAGCCACGTGGGGTC: the “relative binding free energy” value is -0.21 kcal/mol.

Consider TCTAGCACGTGTAGTT, for which the “relative binding free energy” value is -0.01 kcal/mol.

Regarding TGTCACACGTGGTGAG, the “relative binding free energy” value came out at 0.13 kcal/mol.

For AAATGCACGTGGTGGT, the “relative binding free energy” value was -0.2 kcal/mol.

For GTTGTCACGTGCTGGC, the “relative binding free energy” value was 0.09 kcal/mol.

TAGTTCACGTGGATTA: the “relative binding free energy” value stood at 0.19 kcal/mol.

For the sequence ATTCCCACGTGGTTGG, the “relative binding free energy” value was -0.02 kcal/mol.

As to ATGGACACGTGAAGGT, the “relative binding free energy” value turned out to be 0.26 kcal/mol.

For the sequence AGTGGCACGTGTACTG, the “relative binding free energy” value was -0.04 kcal/mol.

On to TGAGTCACGTGGGGTG, for which the “relative binding free energy” value is -0.05 kcal/mol.

With AGGTTCACGTGTAGGA, the “relative binding free energy” value stood at 0.27 kcal/mol.

Turning to TAAAACACGTGTTTGT, the “relative binding free energy” value was -0.15 kcal/mol.

As to ATATTCACGTGTTAGA, the “relative binding free energy” value came to 0.2 kcal/mol.

Take TAGGACACGTGGGTCT: the “relative binding free energy” value was -0.2 kcal/mol.

For TAAGGCACGTGGGTAG, the “relative binding free energy” value was -0.25 kcal/mol.

On to CTTAACACGTGTGTTG, for which the “relative binding free energy” value was -0.03 kcal/mol.

Regarding CATATCACGTGGAGGG, the “relative binding free energy” value stood at 0.11 kcal/mol.

For GGTATCACGTGGGCGC, the “relative binding free energy” value came to 0 kcal/mol.

On to TATAGCACGTGTATAT, for which the “relative binding free energy” value is -0.19 kcal/mol.

For the sequence AGGTACACGTGAGAGG, the “relative binding free energy” value is 0.25 kcal/mol.

Turning to AGGAGCACGTGGGAAG, the “relative binding free energy” value was -0.2 kcal/mol.

For the sequence GTGAGCACGTGGTGAT, the “relative binding free energy” value turned out to be 0.02 kcal/mol.

Turning to TTGTGCACGTGAGCAG, the “relative binding free energy” value was 0.12 kcal/mol.

For CGAGTCACGTGAGGAT, the “relative binding free energy” value was 0.28 kcal/mol.

Consider TCGAACACGTGTGGGA, for which the “relative binding free energy” value is 0.11 kcal/mol.

Turning to CATTGCACGTGGGTGG, the “relative binding free energy” value was -0.15 kcal/mol.

In the case of GGGTGCACGTGCAGTG, the “relative binding free energy” value came to 0.08 kcal/mol.

As to GTTGTCACGTGCCTGG, the “relative binding free energy” value is -0.06 kcal/mol.

With GTGCTCACGTGATTGT, the “relative binding free energy” value was found to be 0.35 kcal/mol.

For the sequence CGAGGCACGTGTCGTT, the “relative binding free energy” value was -0.02 kcal/mol.

As to TATATCACGTGGGAGC, the “relative binding free energy” value is 0.1 kcal/mol.

In the case of GGGTGCACGTGAGCGT, the “relative binding free energy” value was 0.12 kcal/mol.

TATGTCACGTGGGCTT: the “relative binding free energy” value was 0.03 kcal/mol.

With GGTGGCACGTGCTATG, the “relative binding free energy” value is -0.17 kcal/mol.

Consider AAGGTCACGTGATTTT, for which the “relative binding free energy” value amounted to 0.33 kcal/mol.

Consider GTTGGCACGTGGTGTA, for which the “relative binding free energy” value was -0.06 kcal/mol.

For the sequence ATGGGCACGTGGCAGT, the “relative binding free energy” value is -0.25 kcal/mol.

Turning to GGATTCACGTGAGCAG, the “relative binding free energy” value stood at 0.53 kcal/mol.

In the case of GTATGCACGTGATAAT, the “relative binding free energy” value is 0.1 kcal/mol.

For the sequence GCGTGCACGTGGAGTT, the “relative binding free energy” value came to 0.05 kcal/mol.

As to TGTTTCACGTGTAGTC, the “relative binding free energy” value amounted to 0.32 kcal/mol.

Turning to ATATTCACGTGAGGAG, the “relative binding free energy” value turned out to be 0.29 kcal/mol.

Consider TGATACACGTGGCATG, for which the “relative binding free energy” value is -0.12 kcal/mol.

Consider GGCGTCACGTGAAGTG, for which the “relative binding free energy” value is 0.26 kcal/mol.

For GTAAACACGTGAAGTA, the “relative binding free energy” value turned out to be 0.37 kcal/mol.

For the sequence ATTGTCACGTGTGGTT, the “relative binding free energy” value was 0.06 kcal/mol.

With AGAAGCACGTGTTTGT, the “relative binding free energy” value is -0.16 kcal/mol.

For GTTAGCACGTGAGTTC, the “relative binding free energy” value is 0.32 kcal/mol.

TAAGTCACGTGGCATT: the “relative binding free energy” value is -0.02 kcal/mol.

With CGTAACACGTGTTAGG, the “relative binding free energy” value is -0.01 kcal/mol.

Regarding CGGATCACGTGTAAGT, the “relative binding free energy” value came out at 0.18 kcal/mol.

Consider GGTTGCACGTGAGCGA, for which the “relative binding free energy” value was 0.15 kcal/mol.

Turning to GGGTTCACGTGAGGCC, the “relative binding free energy” value amounted to 0.52 kcal/mol.

Take ATGTTCACGTGCAGTA: the “relative binding free energy” value was determined as 0.24 kcal/mol.
